In the supplement of paper PMC4967469:
A lower IC50 marks a more sensitive line; a fit beyond the top or the lowest dose is shown as a bound at that dose. AUC, from the same fit, is the share of area under the viability curve across the 256-fold dose range; values near 1 show little effect. For part of these data: A top dose marked as inferred comes from the curve model; the source does not state it. For part of these data: Drugs with an entry number were screened twice under separate entries, and the two screens often disagree.

Key:
Experiment in all cases: Viability of human cancer cell lines after 72 h of drug (GDSC screen)
PD-0332991 = compound: CC(=O)c1c(C)c2cnc(Nc3ccc(N4CCNCC4)cn3)nc2n(C2CCCC2)c1=O [PD-0332991]
Experimental: (§1)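 Human cancer cell lines in 384-well plates, medium with 10% serum, drug for 72 h over a 256-fold dose range (nine 2-fold or five 4-fold steps up to the top dose). Adherent lines were fixed and stained with the nucleic acid dye Syto60, suspension lines read with resazurin; signal relative to control wells, capped at 0 and 100%. One two-parameter sigmoid per drug and line, fitted in a mixed model over all curves with the slope shared within a line.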

ZM-447439 = compound: COc1cc2c(Nc3ccc(NC(=O)c4ccccc4)cc3)ncnc2cc1OCCCN1CCOCC1 [ZM-447439]; conditions: top dose inferred
Experimental: as §1

AZD6244 = compound: Cn1cnc2c(F)c(Nc3ccc(Br)cc3Cl)c(C(=O)NOCCO)cc21 [AZD6244]; conditions: screen: GDSC drug entry 1062
Experimental: as §1

Cell Line	AUC (PD-0332991)	IC50 (PD-0332991) [µM]	AUC (ZM-447439)	IC50 (ZM-447439) [µM]	AUC (AZD6244)	IC50 (AZD6244) [µM]
AMO-1 (haematopoietic neoplasm, suspension, top dose 4 µM)	0.983	> 4	0.932	> 4	0.991	> 4
ARH-77 (myeloma, suspension, top dose 4 µM)	0.978	> 4	0.985	> 4	0.97	> 4
ASH-3 (thyroid, adherent, top dose 4 µM)	0.866	3.58	0.972	> 4	0.824	2.37
ATN-1 (T-cell lymphoblastic leukaemia, suspension, top dose 4 µM)	0.855	2.85	0.691	0.825	0.806	1.87
AU565 (breast, adherent, top dose 4 µM)	0.923	> 4	0.947	> 4	0.984	> 4
AsPC-1 (pancreas, adherent, top dose 2 µM)	0.564	0.21	0.927	> 2	0.592	0.267
BALL-1 (B-cell leukaemia, suspension, top dose 4 µM)	0.959	> 4	0.997	> 4	0.997	> 4
BB30-HNC (head and neck, adherent, top dose 4 µM)	0.536	0.313	0.904	> 4	0.921	> 4
BB49-HNC (head and neck, adherent, top dose 4 µM)	0.819	3.61	0.89	> 4	0.784	2.48
BC-1 (B-cell lymphoma, suspension, top dose 4 µM)	0.968	> 4	0.987	> 4	0.982	> 4
BCPAP (thyroid, adherent, top dose 2 µM)	0.832	1.12	0.95	> 2	0.871	1.58
BE2-M17 (neuroblastoma, adherent, top dose 4 µM)	0.668	0.748	0.882	> 4	0.847	3.07
BE-13 (lymphoblastic leukaemia, suspension, top dose 4 µM)	0.555	0.349	0.706	0.911	0.915	> 4
BFTC-905 (bladder, adherent, top dose 4 µM)	0.739	1.07	0.832	2.07	0.843	2.28
BHT-101 (thyroid, adherent, top dose 4 µM)	0.476	0.215	0.824	2.48	0.394	0.127
BHY (head and neck, adherent, top dose 2 µM)	0.808	1.04	0.948	> 2	0.818	1.13
BICR10 (head and neck, adherent, top dose 4 µM)	0.807	2.45	0.938	> 4	0.92	> 4
BICR22 (head and neck, adherent, top dose 4 µM)	0.754	1.53	0.8	2.27	0.966	> 4
BICR78 (head and neck, adherent, top dose 4 µM)	0.812	2.58	0.876	> 4	0.939	> 4
BL-41 (Burkitt lymphoma, suspension, top dose 4 µM)	0.887	2.65	0.793	1.37	0.994	> 4
BPH-1 (prostate, adherent, top dose 2 µM)	0.956	> 2	0.912	> 2	0.529	0.151
BT-474 (breast, adherent, top dose 4 µM)	0.98	> 4	0.981	> 4	0.984	> 4

Cell Line	AUC (PD-0332991)	IC50 (PD-0332991) [µM]	AUC (ZM-447439)	IC50 (ZM-447439) [µM]	AUC (AZD6244)	IC50 (AZD6244) [µM]
BT-483 (breast, adherent, top dose 4 µM)	0.946	> 4	0.967	> 4	0.941	> 4
BT-549 (breast, adherent, top dose 4 µM)	0.979	> 4	0.943	> 4	0.968	> 4
BV-173 (chronic myeloid leukaemia, suspension, top dose 4 µM)	0.576	0.394	0.712	0.912	0.949	> 4
Becker (glioma, adherent, top dose 4 µM)	0.742	1.36	0.925	> 4	0.9	> 4
BxPC-3 (pancreas, adherent, top dose 4 µM)	0.846	3.48	0.921	> 4	0.857	3.9
C2BBe1 (large intestine, adherent, top dose 2 µM)	0.863	> 2	0.959	> 2	0.561	0.188
C3A (liver, adherent, top dose 4 µM)	0.953	> 4	0.959	> 4	0.953	> 4
C32 (melanoma, adherent, top dose 4 µM)	0.814	2.37	0.952	> 4	0.974	> 4
C-4-I (cervix, adherent, top dose 4 µM)	0.982	> 4	0.949	> 4	0.986	> 4
C-33-A (cervix, adherent, top dose 4 µM)	0.986	> 4	0.955	> 4	0.986	> 4
CA46 (Burkitt lymphoma, suspension, top dose 4 µM)	0.985	> 4	0.985	> 4	0.979	> 4
CADO-ES1 (Ewing sarcoma, suspension, top dose 4 µM)	0.95	> 4	0.982	> 4	0.958	> 4
CAL-12T (non-small cell lung carcinoma, adherent, top dose 4 µM)	0.892	> 4	0.952	> 4	0.867	> 4
CAL-27 (head and neck, adherent, top dose 4 µM)	0.827	2.5	0.927	> 4	0.985	> 4
CAL-29 (bladder, adherent, top dose 4 µM)	0.626	0.572	0.812	2.36	0.736	1.25
CAL-33 (head and neck, adherent, top dose 4 µM)	0.663	0.71	0.896	> 4	0.946	> 4
CAL-39 (cervix, adherent, top dose 4 µM)	0.647	0.649	0.926	> 4	0.546	0.335
CAL-51 (breast, adherent, top dose 4 µM)	0.778	1.4	0.806	1.72	0.983	> 4
CAL-54 (kidney, adherent, top dose 2 µM)	0.843	1.72	0.943	> 2	0.781	0.959
CAL-62 (thyroid, adherent, top dose 4 µM)	0.753	1.28	0.903	> 4	0.737	1.14
CAL-72 (osteosarcoma, adherent, top dose 4 µM)	0.948	> 4	0.922	> 4	0.983	> 4
CAL-85-1 (breast, adherent, top dose 4 µM)	0.817	3.08	0.933	> 4	0.807	2.8

Cell Line	AUC (PD-0332991)	IC50 (PD-0332991) [µM]	AUC (ZM-447439)	IC50 (ZM-447439) [µM]	AUC (AZD6244)	IC50 (AZD6244) [µM]
CAL-120 (breast, adherent, top dose 4 µM)	0.868	> 4	0.841	> 4	0.903	> 4
CAPAN-1 (pancreas, adherent, top dose 4 µM)	0.916	> 4	0.98	> 4	0.981	> 4
CAS-1 (glioma, adherent, top dose 4 µM)	0.95	> 4	0.957	> 4	0.978	> 4
CCF-STTG1 (glioma, adherent, top dose 4 µM)	0.844	2.9	0.931	> 4	0.988	> 4
CCK-81 (large intestine, adherent, top dose 4 µM)	0.796	1.75	0.653	0.646	0.637	0.583
CCRF-CEM (lymphoblastic leukaemia, suspension, top dose 4 µM)	0.395	0.136	0.619	0.502	0.959	> 4
CESS (acute myeloid leukaemia, suspension, top dose 4 µM)	0.981	> 4	0.991	> 4	0.991	> 4
CFPAC-1 (pancreas, adherent, top dose 4 µM)	0.816	2.63	0.918	> 4	0.851	3.76
CGTH-W-1 (thyroid, adherent, top dose 4 µM)	0.627	0.557	0.801	1.94	0.978	> 4
CHL-1 (melanoma, adherent, top dose 4 µM)	0.866	3.22	0.85	2.78	0.813	2.01
CHP-126 (neuroblastoma, suspension, top dose 4 µM)	0.761	1.45	0.939	> 4	0.987	> 4
CHP-134 (neuroblastoma, suspension, top dose 4 µM)	0.655	0.76	0.748	1.6	0.932	> 4
CHP-212 (neuroblastoma, adherent, top dose 4 µM)	0.499	0.248	0.709	0.92	0.83	2.26
CHSA0108 (chondrosarcoma, adherent, top dose 4 µM)	0.777	1.86	0.943	> 4	0.966	> 4
CHSA8926 (chondrosarcoma, adherent, top dose 4 µM)	0.912	> 4	0.972	> 4	0.973	> 4
CL-11 (large intestine, adherent, top dose 4 µM)	0.879	> 4	0.971	> 4	0.935	> 4
CL-34 (large intestine, adherent, top dose 4 µM)	0.949	> 4	0.871	> 4	0.974	> 4
CL-40 (large intestine, adherent, top dose 4 µM)	0.899	> 4	0.966	> 4	0.974	> 4
CMK (acute myeloid leukaemia, suspension, top dose 4 µM)	0.952	> 4	0.968	> 4	0.983	> 4
CML-T1 (chronic myeloid leukaemia, suspension, top dose 4 µM)	0.576	0.389	0.896	3.45	0.988	> 4
